Data: PubChem BioAssay AID624418 (National Center for Advancing Translational Sciences (NCATS), 2012)
Screen size: about 410,000 compounds; about 530 (0.13%) were called active. This list was built around the results that the source calls inconclusive (neither active nor inactive); the mix of calls is not that of the screen. The call rests on the fitted dose curve; in most records, active means well fitted inhibition curve with a large enough effect; inconclusive means small, poorly fitted or top-dose-only effect, or another doubt; inactive means no such curve, though single readings can be large or run the other way. Where the call is inconclusive, the potency comes from a doubtful curve fit.
Potency means the concentration at half of the fitted maximal effect.

Assay: qHTS of GLP-1 Receptor Inverse Agonists: Cytotox Screen
Settings: HEK293 cAMP-luciferase reporter cells, luminescence, 24 h; series mostly up to 38.3 µM
In short: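 Seeding density was 200 cells/uL; after overnight-length (12 h) culture, 23 nL compounds went on for 24 h at 37 °C. Readout used a luciferase detection reagent, luminescence taken after 12 min at room temperature.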
For `C(=C\c1ccccc1)/C=N/Nc1nc2ccccc2[nH]1`, the Potency was inconclusive: 11.2 µM [inhibitor, partial curve, poor fit].
For `Cc1ccc(S(=O)(=O)N2[C@@H](c3ccc(C(C)(C)C)cc3)C(C(=O)O)=CC[C@H]2c2ccc(C(C)C)cc2)cc1`, the Potency was inconclusive: 20 µM [inhibitor, single point].
In the case of `NC(N)=N/N=C/c1cccc(Cl)c1Cl`, the Potency is reported as inconclusive: 28.2 µM [inhibitor, single point].
In the case of `COc1ccc(C(CNC(=O)c2ccc(S(=O)(=O)N3CC(C)CC(C)C3)cc2)N(C)C)cc1` (configuration not stated), the Potency is reported as inconclusive: 20 µM [inhibitor, single point].
In the case of `Cc1ccsc1/C=N/NC(=O)c1ccc2ccccc2c1`, the Potency is reported as “inactive”.
In the case of `CCCS(=O)(=O)c1ncc(Cl)c(C(=O)N(Cc2ccccc2)Cc2ccco2)n1`, the Potency is reported as active: 10 µM.
For `CN(C)C(=O)c1cccc(COc2ccc(N3C(N)=NC(N)=NC3(C)C)cc2Cl)c1`, the Potency was “inactive”.
In the case of `CC1(C)Nc2ccc(O)cc2-c2c1ssc2=S`, the Potency is reported as inconclusive: 10 µM [inhibitor, partial curve, poor fit].
With `COc1ccccc1NC(=O)C1=C(C)Nc2c(C(=O)Nc3ccc(F)cc3)cnn2C1c1ccc(Cl)cc1` (configuration not stated) the Potency was inconclusive: 10 µM [inhibitor, single point].
For `Cc1cccc(N(C(=O)CCC(=O)Nc2cc(C)on2)C(C(=O)NC2CCCC2)c2ccccc2)c1` (configuration not stated), the Potency was “inactive”.
For `CCCC(=O)NC(c1ccccc1)c1ccc2cccnc2c1O` (configuration not stated), the Potency was inconclusive: 1 µM [inhibitor, full curve, poor fit].
For `O=C1c2ccccc2S(=O)(=O)N1CC1CC(c2ccc(Cl)cc2)=NO1` (configuration not stated), the Potency was “inactive”.
With `Nc1ccn([C@@H]2O[C@H](CO)[C@@H](O)[C@@H]2O)c(=O)n1` the Potency was “inactive”.
For `Cn1c(=O)c([N+](=O)[O-])c(NCc2ccccc2Cl)c2ccccc21`, the Potency was inconclusive: 7.94 µM [inhibitor, partial curve, poor fit].
For `COc1ccc(CCN2CC(C(=O)NC3CCOCC3)CCC2=O)cc1` (configuration not stated), the Potency was “inactive”.
For `COc1ccc(/C=N/Nc2nc(C)cc(-c3ccccc3)n2)cc1OC`, the Potency was inconclusive: 14.1 µM [inhibitor, single point].
In the case of `COc1cccc2sc(N(CCCN(C)C)C(=O)CCS(=O)(=O)c3ccccc3)nc12`, the Potency is reported as inconclusive: 10 µM [inhibitor, partial curve, poor fit].
With `CCOc1ccc(CNS(=O)(=O)c2ccc3[nH]c4c(c3c2)CCCC4)cc1OC` the Potency was “inactive”.
In the case of `COc1ccc(-c2nnc(SCC(=O)NCC3CCCO3)o2)cc1` (configuration not stated), the Potency is reported as “inactive”.
With `Cc1ccc(-c2nc3ccccc3c(=O)n2CCN2CCOCC2)cc1` the Potency was inconclusive: 10 µM [inhibitor, partial curve].
In the case of `CCOc1ccc(-c2cc(C(=O)NCCCn3ccnc3)c3cc(Br)ccc3n2)cc1`, the Potency is reported as inconclusive: 14.1 µM [inhibitor, single point].
In the case of `Cc1ccc(/C=C/c2nc3ccccc3c(=O)[nH]2)cc1`, the Potency is reported as “inactive”.
In the case of `CCOc1cc2c(cc1OCC)C(c1ccccc1)N(c1ccc(C(=O)O)cc1)C(=O)C2` (configuration not stated), the Potency is reported as inconclusive: 0.501 µM [inhibitor, full curve, poor fit].
For `COc1cc(/C=N/O)ccc1Oc1cnccn1`, the Potency was inconclusive: 28.2 µM [inhibitor, single point].
For `NC(=O)C1CCN(c2cc(N3CCOCC3)ccc2[N+](=O)[O-])CC1`, the Potency was inconclusive: 11.2 µM [inhibitor, single point].
With `O=C1SCCC1NC(=O)C(c1ccccc1)c1ccccc1` (configuration not stated) the Potency was inconclusive: 12.6 µM [inhibitor, single point].
In the case of `S=C(Nc1ccccc1Cl)N(CCN1CCCCC1)Cc1ccco1`, the Potency is reported as inconclusive: 20 µM [inhibitor, single point].
In the case of `Cc1ccc2c(c1)C(=O)C(=O)N2CCOc1ccccc1`, the Potency is reported as inconclusive: 28.2 µM [inhibitor, partial curve, poor fit].
For `S=C(NCCc1ccc(Cl)cc1)NCc1ccccc1`, the Potency was inconclusive: 28.2 µM [inhibitor, single point].
In the case of `CC1(C)Cc2c(c(N3CCOCC3)nc3sc(C(N)=O)c(N)c23)CO1`, the Potency is reported as “inactive”.
With `CCOc1ccc2ccccc2c1/C=N\NC(=O)c1ccc([N+](=O)[O-])cc1` the Potency was inconclusive: 14.1 µM [inhibitor, single point].
In the case of `Cn1cc(C(c2ccccc2OCC(=O)O)c2cn(C)c3ccccc23)c2ccccc21`, the Potency is reported as inconclusive: 10 µM [inhibitor, partial curve].
In the case of `C#CCOCCOCCOCCNc1nc(N2CCN(C(=O)CCCCCCCCCCNC(=O)[C@H](CCCCN)n3cc(C[C@@H](C)CC)nn3)CC2)nc(N2CCN(C(=O)CCCCCCCCCCNC(=O)[C@H](CCCCN)n3cc(C[C@@H](C)CC)nn3)CC2)n1`, the Potency is reported as inconclusive: 28.2 µM [inhibitor, single point].
For `COC(=O)c1nc(NC(=S)NC(=O)c2cccs2)sc1C`, the Potency was “inactive”.
With `Cc1ccc(S(=O)(=O)N2[C@H](CC(=O)c3ccc(Cl)c(Cl)c3)OC[C@@H]2C)cc1` the Potency was inconclusive: 10 µM [inhibitor, partial curve, poor fit].
For `COc1ccc2c(c1)C(C)=CC(C)(C)N2S(=O)(=O)c1ccc(C)cc1`, the Potency was inconclusive: 1 µM [inhibitor, partial curve, poor fit].
For `CCNc1ccc(N=Nc2c(C)n(C)n(-c3ccccc3)c2=O)cc1`, the Potency was inconclusive: 12.6 µM [inhibitor, single point].
For `Fc1cccc(-c2nc(-c3ccncc3)no2)c1`, the Potency was “inactive”.
With `CCCC(=O)NC(c1cccc([N+](=O)[O-])c1)c1ccc2cccnc2c1O` (configuration not stated) the Potency was inconclusive: 1.58 µM [inhibitor, full curve, poor fit].
For `O=C(CCCN1C(=O)/C(=C/c2cccs2)SC1=S)NNC(=O)c1cccnc1`, the Potency was inconclusive: 10 µM [inhibitor, single point].
For `Cc1c(CCOC(=O)c2ccc(Cl)cc2Cl)sc[n+]1CC(=O)c1ccc(Br)cc1`, the Potency was inconclusive: 12.6 µM [inhibitor, single point].
With `Cc1c(CCOC(=O)CC23CC4CC(CC(C)(C4)C2)C3)sc[n+]1CC(=O)c1ccccc1` the Potency was inconclusive: 14.1 µM [inhibitor, single point].
